The source of these data is paper PMC12136788.

The list shows a part of the results.

Sequences and labels used below:
T1: UNK ZnF1-6 (called full-length) (human, UniProt Q9C0B0 30-357)
T1 sequence: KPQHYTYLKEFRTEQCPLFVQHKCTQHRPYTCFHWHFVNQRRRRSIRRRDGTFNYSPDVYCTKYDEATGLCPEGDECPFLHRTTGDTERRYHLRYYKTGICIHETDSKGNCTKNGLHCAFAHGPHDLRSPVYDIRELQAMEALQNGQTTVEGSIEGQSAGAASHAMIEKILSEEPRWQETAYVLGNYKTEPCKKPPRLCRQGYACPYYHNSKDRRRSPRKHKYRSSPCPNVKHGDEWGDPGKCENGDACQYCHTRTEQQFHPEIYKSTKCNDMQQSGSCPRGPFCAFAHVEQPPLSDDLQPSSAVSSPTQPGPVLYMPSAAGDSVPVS

B1: ENSG00000196277:stop:overlap|stop_codon|ENSG00000196277|stop_codon|NA|stop_codon (ssRNA)
RNA: GGGAGUUCUACAGUCCGACGAUCCACCAGUAAGAAAGAGUGUACAAAAGUCUGUUACUUGGUACACUAUCCCACCAACAGUAUAGCUUUUGACUGCUUUCCCAAAGAUUUUUUUUUUUGGCUGUACAGUGGAACUUGGAUUACCAACAGAGGAUUGAGCAUCA
B2: chr2:157736639:157736676:-|3pUTR|ENSG00000115170|msi1_unk|total|mutant (ssRNA)
RNA: GGGAGUUCUACAGUCCGACGAUCCUUCACAUUUGUAUGUGUGCCGACUGUAACUUUUUUUCAGUUCAUAUGCAGAACGUAUUCCGCCAUUACCCACGUGACACCACCGAAUAUAUUACUGAUUCCGAAGCAAAGAUUUCAGUACAACAGAGGAUUGAGCAUCA
B3: chr8:12728900:12729063:-|CDS|ENSG00000154359|control|control|control (ssRNA)
RNA: GGGAGUUCUACAGUCCGACGAUCAACGUGCAUUUCUUACCGGACGGAAGGUCUGUGGUUGAUACAGUUGGAGGAAAGCGGUUUAGGGUUUUAAAAAGAGGAAUGAAAGAUGGAUAUUGCACUGCCGACAUUGAAUAUCUGGAACAACAGAGGAUUGAGCAUCA
B4: chr2:46903789:46903890:-|3pUTR|ENSG00000180398|msi1|total|mutant (ssRNA)
RNA: GGGAGUUCUACAGUCCGACGAUCAAAUUUCUGCAGCUGGCUUGAAUUUCUCCCCAGAAAAUGGGUUUUUCUUUUCUAUUGCACCGUCAGGCUGCAAAUUUCCAAACUUUUAUGCUUUGCUUCCCUUAUUUAUAAGGGAAUGCCCAACAGAGGAUUGAGCAUCA
B5: chr14:50159683:50159784:-|CDS|ENSG00000100485|unk|FALSE|unique (ssRNA)
RNA: GGGAGUUCUACAGUCCGACGAUCGAGGAAAAUACAAAUUUGUGAUAAAGAAGAUACUUGUGAGCACAAGCAUGCAUUUGAAUUAGUAUCCAAAGAUGAGAACAGCAUAAUAUUUGCUGCUAAGUCUGCUGAAGAAAAAAACAACAACAGAGGAUUGAGCAUCA
B6: ENSG00000070961:be:win_3251|CDS|ENSG00000070961|bound_else_gene|NA|bound_elsewhere_windowed (ssRNA)
RNA: GGGAGUUCUACAGUCCGACGAUCAGGAAUUAGCAGAGGAUGUUGAAGAGAUUGAUCACGCUGAAAGGGAGUUGCGGCGUGGCCAAAUCUUGUGGUUUAGAGGUCUGAACAGAAUCCAAACACAGAUUCGAGUGGUGAAUGCAUCAACAGAGGAUUGAGCAUCA
B7: chr21:34512026:34512195:-|three_prime_utr|ENSG00000288711|control|control|control (ssRNA)
RNA: GGGAGUUCUACAGUCCGACGAUCACACUACCGGAUCCUCCGAGGGUGAUGGUUCUCAAGAAGGCAGAAGCAAUGGUGACCAAUAGACCUCCUUAAAGGCUGAGCCGCUGGGCACCUUCCUACUCCUCUCGACCGUGCUAGGAUCAACAGAGGAUUGAGCAUCA
B8: ENSG00000066084:stop:overlap|stop_codon|ENSG00000066084|stop_codon|NA|stop_codon (ssRNA)
RNA: GGGAGUUCUACAGUCCGACGAUCACUGGCAGCCACACAUCUCACCUGCUGGGACAGAACCGGCAUACAUUGAGGGGAAACAAUAGUAAAUGUCUUAGACUUUAAGAAGGAUGCUGGGCUGUGGCACGGCAUGUUUGCGAAUGUCAACAGAGGAUUGAGCAUCA
B9: chr17:66805439:66805473:+|3pUTR|ENSG00000154229|msi1_unk|FALSE|overlapping (ssRNA)
RNA: GGGAGUUCUACAGUCCGACGAUCCACAAUUGUGCUCUAUUUGUGCAGGUUCUUGUUUCUAAUCCUCUUUUCUAAUUAAGUUUUAGCUGAAUCCCUUGCUUCUGUGCUUUCCCUCCCUGCACAUGGGCACUGUAUCAGAUAGAUCAACAGAGGAUUGAGCAUCA
B10: chr1:96820056:96820157:+|3pUTR|ENSG00000117569|unk|total|mutant (ssRNA)
RNA: GGGAGUUCUACAGUCCGACGAUCCCGUGUAAUAUAUAUAUAACCGCUCUAAUUAUAAAUACACUUUUACUCUGGAAAAAGCACCGACAUUGACAUAAGAGACAUUUAAAAACCAUUAUUUUCUCAUCUGUAAAAUGGAGAGAACAACAGAGGAUUGAGCAUCA
B11: chr7:97024268:97024623:-|CDS|ENSG00000105880|control|control|control (ssRNA)
RNA: GGGAGUUCUACAGUCCGACGAUCGGCGUGAACGGCUCCGCCGGGAGCUACCCAGCCAAAGCUUAUGCCGACUAUAGCUACGCUAGCUCCUACCACCAGUACGGCGGCGCCUACAACCGCGUCCCAAGCGCCACCAACCAGCCACAACAGAGGAUUGAGCAUCA
B12: chr13:30280108:30280219:-|CDS|ENSG00000102781|unk|FALSE|bound_elsewhere (ssRNA)
RNA: GGGAGUUCUACAGUCCGACGAUCUAAGGUUCGGCAGGAAUUAUUGGAGGAAUAUGAACAAGUUAAAAGUAUUGUCAGCACUUUAGAAAGUUUUAAAAUUGACAAGCCUCCAGAUUUCCCUGUGUCCUGUCAAGAUGAACCAUUCAACAGAGGAUUGAGCAUCA
B13: chr6:43287355:43287456:+|3pUTR|ENSG00000146216|unk|FALSE|unique (ssRNA)
RNA: GGGAGUUCUACAGUCCGACGAUCUAUGACUCCUGGUGCCCAGGCCCUGGGCCUGCUCCUUGCCACCAACCGAACCGUGAAUGUAGGGCCCCCAGCCUCACCUCUGCCCCAGGACCAACAACACCCUGGUUUGGAGCUGGGAGGCAACAGAGGAUUGAGCAUCA
B14: ENSG00000070961:be:win_201|CDS|ENSG00000070961|bound_else_gene|NA|bound_elsewhere_windowed (ssRNA)
RNA: GGGAGUUCUACAGUCCGACGAUCCAAUGAAGGUUUAAGUGGAAACCCUGCAGAUUUAGAAAGAAGAGAAGCAGUGUUUGGAAAGAAUUUUAUACCUCCUAAAAAGCCAAAAACCUUUCUUCAAUUAGUAUGGGAAGCAUUACACAACAGAGGAUUGAGCAUCA
B15: chr21:25881503:25881610:-|3pUTR|ENSG00000142192|msi1_unk|FALSE|overlapping (ssRNA)
RNA: GGGAGUUCUACAGUCCGACGAUCACAAACCCGUUUUAUGAUUUACUCAUUAUCGCCUUUUGACAGCUGUGCUGUAACACAAGUAGAUGCCUGAACUUGAAUUAAUCCACACAUCAGUAAUGUAUUCUAUCUCUCUUUACAUUUCAACAGAGGAUUGAGCAUCA
B16: chr1:16124655:16124788:-|3pUTR|ENSG00000142627|msi1|total|mutant (ssRNA)
RNA: GGGAGUUCUACAGUCCGACGAUCAGACUGUGAACUUGACUGGGUGAGACCCAAAGCGGUCCCUGUCCCUCCCGUGCCUUCUUCCGACCCUCGGGCCCCAUCCUCAUCCCUGACUGGCCAAACCCUUGCUUUCCUGGGCCUUUGCAACAGAGGAUUGAGCAUCA
B17: chr1:226361101:226361261:-|3pUTR|ENSG00000143799|msi1|total|mutant (ssRNA)
RNA: GGGAGUUCUACAGUCCGACGAUCUUUCUUGCCAGGCCGAUAAAACUGACACCGAGAAAAGGCUGGAGAGAGAUUCUGUUGCACCGACCCGUCCUAUGGAAAAAACCAAGCUUCGUCCGAAUGUCUGCCUUACUGGUUUCCCCACAACAGAGGAUUGAGCAUCA
B18: ENSG00000123983:stop:overlap|stop_codon|ENSG00000123983|stop_codon|NA|stop_codon (ssRNA)
RNA: GGGAGUUCUACAGUCCGACGAUCGUGAUGCCAGACGUUUUUUUGGGUGUGGGACUACAAUACUGGCAGAGUGGGAGCACCAUUAGUUUGCUGUGAAAUCAAAUUAAAAAACUGGGAGGAAGGUGGAUACUUUAAUACUGAUAACAACAGAGGAUUGAGCAUCA
B19: chr11:61799969:61800070:-|3pUTR|ENSG00000149485|msi1|total|mutant (ssRNA)
RNA: GGGAGUUCUACAGUCCGACGAUCUUCUUUGCCACCUUUUGGGUGUGGUGUCACCAGCCUGUUCCGCCAAGCCGCUUUGGGCACCGGCUGCCCAAUCUGAGCAAACACCAGUGAGGCUCUAUUGAGCCAAGACCAAGUCCUCAACAACAGAGGAUUGAGCAUCA
B20: chr19:42216679:42217007:-|CDS|ENSG00000160570|control|control|control (ssRNA)
RNA: GGGAGUUCUACAGUCCGACGAUCCUUUCUGCUGGAUGAGGCUCCUGGCGCCGCCGGAGGCUUAGCCCGGGCCCGCAGCGGCCUAGAGCUCCUGCUGGAGCUGGAGCGCCGCGGGCAGUGCGACGAGAGCAACCUGCGGCUGCUCAACAGAGGAUUGAGCAUCA
B21: chr12:29502561:29502662:-|3pUTR|ENSG00000133687|msi1|FALSE|unique (ssRNA)
RNA: GGGAGUUCUACAGUCCGACGAUCUCUUAACAAUGAUGUAUGGCACAAUUGGUUGGUUGAGGCUAUCAUUCCAUGAUUACAAAUAGGUGGUUAUGUGGGGUGGUUUUGCACUUGUGGCAAUUGGACUGCAAUUUGGCCUUAAAACAACAGAGGAUUGAGCAUCA
B22: chr12:57478539:57478757:-|CDS|ENSG00000123329|control|control|control (ssRNA)
RNA: GGGAGUUCUACAGUCCGACGAUCCUCCCAAGCAGGGCUCAGGCUAGCUCGGAGCAGCCUCCUCCACUUCCCCGCAAAAUGUGUAGGAGCGUCAGCACUGACAAUCUGAGCCCCAGCCUUCUGAAGCCUUUCCAGGAAGGACCACAACAGAGGAUUGAGCAUCA

The target of this assay is T1, UNK ZnF1-6 (called full-length). The experiment in a line: nsRBNS (natural sequence RNA bind-n-seq); RBNS binding buffer (assumed for nsRBNS): 25 mM Tris pH 7.5, 150 mM KCl, 3 mM MgCl2, 0.01% Triton X-100, 500 ug/ml BSA, 20 U/ml SUPERase-In, 4 C; UNK is unkempt and MSI1 is Musashi-1; names of the RNAs are library labels; protein concentration not given here; high values mean tight binding.
Turning to B1, the binding signal amounted to 0.425 enrichment R.

B2 gave a binding signal of 0.241 enrichment R.

As for B3, the binding signal amounted to 0.742 enrichment R.

B4 showed a binding signal of 0.715 enrichment R.

Consider B5, for which the binding signal was 0.389 enrichment R.

B6 came in with a binding signal of 0.809 enrichment R.

B7 showed a binding signal of 0.707 enrichment R.

The molecule B8 showed a binding signal of 1.59 enrichment R.

The molecule B9 displayed a binding signal of 1.41 enrichment R.

Take B10: the binding signal was 0.588 enrichment R.

B11 gave a binding signal of 0.607 enrichment R.

Turning to B12, the binding signal worked out at 0.597 enrichment R.

B13 displayed a binding signal of 0.933 enrichment R.

Turning to B14, the binding signal was found to be 1.02 enrichment R.

B15: the binding signal was found to be 0.517 enrichment R.

Regarding B16, the binding signal turned out to be 1.06 enrichment R.

Molecule B17 yielded a binding signal of 0.526 enrichment R.

For B18, the binding signal turned out to be 1.28 enrichment R.

Turning to B19, the binding signal turned out to be 0.477 enrichment R.

B20 returned a binding signal of 0.347 enrichment R.

B21 displayed a binding signal of 0.497 enrichment R.

As for B22, the binding signal was found to be 0.628 enrichment R.
